The supplement of paper PMC11876631
Where a chain is given by its changes, count along the chain named. In names and notes the source's numbering stands. ± gives the standard deviation of the averaged measurements. Laboratory Escherichia coli strains with one amino-acid change in an essential protein, pooled on minimal glucose agar with carbenicillin or gentamicin at twice the control MIC (plus kanamycin and chloramphenicol for the plasmids), 48 h. Fold change of barcode share against drug-free plates; higher = less susceptible. Active = above 20 in both replicates (the paper's putatively resistant). '<' = one read or none on drug, '>' = one read or none on a drug-free plate. Shares are relative, so most strains fall below 1 when a few take over. Listed are strains with at least 15 reads on both drug-free plates, and hits; most hits rest on fewer reference reads. Replicate rank correlation about 0.5. Edits are read from barcodes.

Target: Escherichia coli (laboratory strain)
Assay: barcode share on antibiotic plates over drug-free plates; higher = less susceptible
Experimental: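 A pool of E. coli strains, each edited to carry one amino-acid change in an essential protein, was grown for 48 h on minimal glucose agar with or without antibiotic; strain barcodes were sequenced; mean of two replicates.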

[1] = antibiotic: carbenicillin, 2× MIC (3.1 µg/mL)
[2] = antibiotic: gentamicin, 2× MIC (MIC 0.45 µg/mL)

B1: plsB M476W (protein)
chain: MSGWPRIYYKLLNLPLSILVKSKSIPADPAPELGLDTSRPIMYVLPYNSKADLLTLRAQCLAHDLPDPLEPLEIDGTLLPRYVFIHGGPRVFTYYTPKEESIKLFHDYLDLHRSNPNLDVQMVPVSVMFGRAPGREKGEVNPPLRMLNGVQKFFAVLWLGRDSFVRFSPSVSLRRMADEHGTDKTIAQKLARVARMHFARQRLAAVGPRLPARQDLFNKLLASRAIAKAVEDEARSKKISHEKAQQNAIALMEEIAANFSYEMIRLTDRILGFTWNRLYQGINVHNAERVRQLAHDGHELVYVPCHRSHMDYLLLSYVLYHQGLVPPHIAAGINLNFWPAGPIFRRLGAFFIRRTFKGNKLYSTVFREYLGELFSRGYSVEYFVEGGRSRTGRLLDPKTGTLSMTIQAMLRGGTRPITLIPIYIGYEHVMEVGTYAKELRGATKEKESLPQMLRGLSKLRNLGQGYVNFGEPMPLWTYLNQHVPDWRESIDPIEAVRPAWLTPTVNNIAADLMVRINNAGAANAMNLCCTALLASRQRSLTREQLTEQLNCYLDLMRNVPYSTDSTVPSASASELIDHALQMNKFEVEKDTIGDIIILPREQAVLMTYYRNNIAHMLVLPSLMAAIVTQHRHISRDVLMEHVNVLYPMLKAELFLRWDRDELPDVIDALANEMQRQGLITLQDDELHINPAHSRTLQLLAAGARETLQRYAITFWLLSANPSINRGTLEKESRTVAQRLSVLHGINAPEFFDKAVFSSLVLTLRDEGYISDSGDAEPAETMKVYQLLAELITSDVRLTIESATQGEG
[1]
  fold change of barcode share: 0.368 ± 0.23
[2]
  fold change of barcode share: 0.0109 ± 0.0075

B2: plsB M476Q (protein)
chain: B1 chain with W476Q
[1]
  fold change of barcode share: 0.254 ± 0.18
[2]
  fold change of barcode share: 0.142 ± 0.19

B3: plsB M476D (protein)
chain: B1 chain with W476D
[1]
  fold change of barcode share: 0.224 ± 0.12
[2]
  fold change of barcode share: < 0.00537

B4: plsB L479A (protein)
chain: B1 chain with W476M, L479A
[1]
  fold change of barcode share: 0.379 ± 0.061
[2]
  fold change of barcode share: 0.00506 ± 0.0021
